Measured values as given in article PMC4550849 (Scientific Reports, 2015).

The compounds below were run against cathepsin B (Mus musculus, UniProt P10605).
Description: Cathepsin B activity in total cell lysates was determined using an InnoZyme ™ cathepsin B activity assay kit (EMD Milipore) and performed according to the manufacturer’s instruction. […] Cellular cathepsin B activity with and without drugs was tested by pre-treating cells with drugs for 1 hour, followed by lysing cells and testing cathepsin B activity with a fluorescently labeled substrate. […] . Fluorescence intensity indicating cathepsin B activity was measured at an excitation wavelength of 370 nm and emission wavelength of 450 nm (Molecular Devices, Spectra Max 384 PLUS).
the activity of host cathepsin B. FRET assay showing the activity of cathepsin B
µM. RAW264.7 cells were treated with drugs for 1 hour prior to lysis and
determination of cathepsin B activity (a), or untreated RAW264 cells were lysed, the
lysate was treated with drugs, and then the activity of cathepsin B was assessed […]

Compound	cathepsin B activity in protein lysate from cells not exposed to drugs	cathepsin B enzymatic activity in cells pre-treated with drug
CCN(CC)Cc1cc(Nc2ccnc3cc(Cl)ccc23)ccc1O [AQ, Amodiaquine]	inhibited cathepsin B activity	lost cathepsin B enzymatic activity in a dose dependent manner
CCN(CC)CCCC(C)Nc1ccnc2cc(Cl)ccc12 (centres unmarked) [CQ, Chloroquine]	weaker inhibitors	weaker inhibitors
CCNCc1cc(Nc2ccnc3cc(Cl)ccc23)ccc1O [DEAQ, Desethyl-Amodiaquine]	inhibited cathepsin B activity	lost cathepsin B enzymatic activity in a dose dependent manner
CCNCCCC(C)Nc1ccnc2cc(Cl)ccc12 (centres unmarked) [DECQ, Desethyl-Chloroquine]	weaker inhibitors	weaker inhibitors
